Laboratory results as given in the supplement of paper PMC10338343.
The list shows a part of the results, in another mix than the full data.

system: MIWI (PIWIL1) piRISC loaded with L1MC piRNA (30 nt); assay: pre-steady-state target cleavage rate (min^-1); MIWI and MILI are mouse PIWI proteins and EfPiwi is from a freshwater sponge; tags in brackets are library labels; higher = faster piRNA-guided slicing of the target; conditions: guide: L1MC piRNA 5'p-UAACUAAAUACUAUGCAAGCUGUAGGUCCU; auxiliary factor: none (no GTSF1)
Procedure, shortened: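 Cleave-'n-Seq: a transcribed, DNA-blocked target RNA library (0.1 nM) was mixed with 1 nM active affinity-purified piRISC carrying one synthetic guide, with or without 500 nM GTSF1 partner protein, in HEPES–potassium acetate buffer at 33 °C for 0–8 or 0–960 min. Uncleaved targets were sequenced and normalised to depth and to weakly complementary targets. Three trials were pooled, and k3 was capped at 0.0001 min^-1. The pre-steady-state cleavage rate came from a burst-and-steady-state fit.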

pre-steady-state target cleavage rate, < 0.0001:
UCCUGGAUGUCGAACGAUAGUAUAAAGUUA, UCCUGGAUGUCGUUGGAAAGUAUUUAGUUA, UCCUGGAUGUCGAACGAUAGAUAUUAGUUA, UCCUGGAUGUCGAACCAUACUAUAUAGUUA
